These results are taken from patent publication US10696710B2, “Pharmaceutical targeting of a mammalian cyclic di-nucleotide signaling pathway” (Board of Regents, The University of Texas System, priority 2012, dated 2020).

Like-named read-outs stand apart in the source and are kept apart here.

For one assay, the target named is T1, human STING (Homo sapiens, UniProt Q86WV6, H232R).
T1 construct: A C-terminal domain (CTD) encompassing residues 139-379 of human STING; made in house; host or cells: E. coli
T1 sequence (Q86WV6 139-379 H232R): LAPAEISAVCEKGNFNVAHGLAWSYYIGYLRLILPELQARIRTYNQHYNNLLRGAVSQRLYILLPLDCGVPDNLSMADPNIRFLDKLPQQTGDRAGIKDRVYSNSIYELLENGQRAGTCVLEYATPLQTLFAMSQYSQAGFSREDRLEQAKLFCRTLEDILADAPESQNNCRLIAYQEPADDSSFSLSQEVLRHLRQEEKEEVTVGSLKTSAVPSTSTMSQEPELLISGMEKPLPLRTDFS
The assay is described as follows: Isothermal titration calorimetry of STING C-terminal domain (residues 139-379) binding to cyclic di-nucleotides. A general note: ITC needs no label: the signal is the heat of the interaction.

The next assay relates to L929 cells. The assay is described as follows: IFNβ induction in L929 cells after delivery of cyclic di-nucleotides (q-RT-PCR, ELISA). The format is cell-based, mouse. From the text: We also established two L929 cell lines stably expressing shRNA sequences targeting distinct regions of m-cGAS. The ability of these cells to induce IFNβ in response to HT-DNA was severely compromised as compared to another cell line expressing a control shRNA (GFP). Importantly, expression of cGAS in the L929-sh-cGAS cells restored IFNβ induction. […] . Quantitative RT-PCR analyses confirmed the specificity and efficiency of knocking down cGAS and STING in the L929 cell lines stably expressing the corresponding shRNAs.
. The reason for this is not clear, but it is possible that different compounds have different stability or distribution in the cells.
(In general: An ELISA detects its analyte on a solid surface through an enzyme-linked reagent.)

The target of a further assay is STING (Homo sapiens, UniProt Q86WV6). The assay is described as follows: UV-induced crosslinking of 32P-cGAMP to recombinant STING (residues 139-379) with cold competitors. To be noted: increasing or high concentrations of cold competitor.
Chain of STING (Q86WV6 139-379 H232R): as above
Assay [1] deals with HIV. The format is cell-based, human.
Assay [2] has as its system HIV. The format is cell-based, human. Particulars: THP1 cells.
The test system of assay [3] is THP1 cells. Nature of the assay: IFNβ induction by HT-DNA (specificity control for reverse transcriptase inhibitors). Particulars: even at high concentrations. The format is cell-based, human. From the text: To test if reverse transcription is required for HIV to activate the innate immune response, we treated THP1 cells with the HIV reverse transcriptase inhibitors, azidothymidine (AZT) and nevirapine (NVP).

Another assay deals with IRF3. The assay is described as follows: IRF3 activation / dimerization by cyclic di-nucleotides. Particulars: for IRF3 dimerization: L929 versus L929-shSTING cells.
The next assay relates to lung fibroblasts. Nature of the assay: IFNβ induction in mouse lung fibroblasts after delivery of cGAMP into the cytoplasm. Type of assay: cell-based.
The test system of assay [4] is THP1 cells. The assay is described as follows: IFNβ induction in cGAS shRNA knockdown THP1 cells after cGAMP delivery. Particulars: THP1 cells with cGAS shRNA.

Take `Nc1nc2c(ncn2[C@@H]2O[C@@H]3COP(=O)(O)O[C@@H]4[C@H](O)[C@@H](COP(=O)(O)O[C@@H]2[C@@H]3O)O[C@H]4n2cnc3c(N)ncnc32)c(=O)[nH]1` [2′2′-cGAMP]: at human STING (ITC, titrated directly to STING CTD), the dissociation constant (Kd) (as a rule, the free concentration of one partner at which half of the binding sites on the other are occupied at equilibrium, for simple one-to-one binding) is 287 nM.

Take `Nc1nc2c(ncn2[C@@H]2O[C@@H]3COP(=O)(O)O[C@H]4[C@@H](O)[C@H](n5cnc6c(N)ncnc65)O[C@@H]4COP(=O)(O)O[C@@H]2[C@@H]3O)c(=O)[nH]1` [2′3′-cGAMP]: the concentration giving a half-maximal response (EC50) (commonly the concentration giving half of the maximal effect) in the assay with L929 cells (Mus musculus, L929, read-out: EC50 of IFNβ induction) is around 20 nM.

Take `Nc1ncnc2c1ncn2[C@@H]1O[C@H](COP(=O)(O)OP(=O)(O)OP(=O)(O)O)[C@@H](O)[C@H]1O` [ATP]: at STING, the “competition with formation of the crosslinked STING-32P-cGAMP complex (band intensity)” value (“competition with formation” below) is on record as “did not compete”.

For `O=c1[nH]cnc2c1ncn2[C@H]1CC[C@@H](CO)O1` [DDI, didanosine], the “effect on generation of the cGAMP activity” value (“effect on generation” for short) with HIV [1] is given as “blocked”.

With `Nc1nc2c(ncn2[C@@H]2O[C@H](COP(=O)(O)OP(=O)(O)OP(=O)(O)O)[C@@H](O)[C@H]2O)c(=O)[nH]1` [GTP], the “competition with formation” value at STING is given as “did not compete”.

For the molecule `Cc1ccnc2c1NC(=O)c1cccnc1N2C1CC1` [NVP, nevirapine], in the assay on HIV [2], the “effect on IFNβ induction by HIV” value is “blocked” and the “effect on IRF3 activation by HIV” value is recorded as “blocked”. Further, in the assay on THP1 cells [3], the “effect on IFNβ induction by HT-DNA” value is reported as “did not inhibit”. For the same molecule, the “effect on generation” value in the assay with HIV [1] is recorded as “blocked”.

Consider `Cc1nnc(C(=O)NC(C)(C)c2nc(C(=O)NCc3ccc(F)cc3)c(O)c(=O)n2C)o1` [RAL, raltegravir], for which, in the assay on HIV [2], the “effect on IFNβ induction by HIV” value was “did not affect” and the “effect on IRF3 activation by HIV” value is listed as “did not affect”. The “effect on generation” value in the assay with HIV [1] is “had no effect”.

In the case of `Nc1ncnc2c1ncn2[C@@H]1O[C@@H]2COP(=O)(O)O[C@H]3[C@@H](O)[C@H](n4cnc5c(N)ncnc54)O[C@@H]3COP(=O)(O)O[C@H]2[C@H]1O` [c-di-AMP, cyclic-di-AMP], the “competition with formation” value on STING is reported as “decreased”.

Consider `Nc1nc2c(ncn2[C@@H]2O[C@@H]3COP(=O)(O)O[C@H]4[C@@H](O)[C@H](n5cnc6c(=O)[nH]c(N)nc65)O[C@@H]4COP(=O)(O)O[C@H]3[C@H]2O)c(=O)[nH]1` [c-di-GMP, cyclic-di-GMP], for which the “heat change of binding to STING” value at human STING (ITC direct binding) was “exothermic”. Further, the EC50 with L929 cells (L929 cells, q-RT-PCR, read-out: EC50 of IFNβ induction) is above 500 nM. The IRF3 dimerization entry in the assay with IRF3 is recorded as “dependent on STING”. Further, the “competition with formation” value on STING was “decreased”.

With cyclic-GMP-AMP [cGAMP], the IFNβ induction result in the assay on L929 cells (L929-sh-cGAS cells) is recorded as “induced IFNβ”; in the assay with L929 cells (L929-shSTING cells) it was “failed to induce IFNβ”; in the assay on lung fibroblasts (Sting gt/gt lung fibroblasts), “not”; in the assay with lung fibroblasts (cGas−/− lung fibroblasts), “rescued IFNβ induction”; in the assay on THP1 cells [4], “rescued”. Further, the “potency in inducing IFNβ” value in the assay on L929 cells (L929 cells, ELISA) is “much more potent than c-di-GMP”. Besides, the “concentration at which IFNβ RNA is still robustly induced” value in the assay with L929 cells (L929 cells, titration, chemically synthesized cGAMP) was at most 10 nM. Moreover, in the assay with IRF3, the “potency in activating IRF3” value is “more potent than c-di-GMP and c-di-AMP”. The IRF3 dimerization entry with IRF3 is “dependent on STING”.
